Here are results for 110 molecules from PubChem BioAssay AID488969 (Vanderbilt High Throughput Screening Facility, 2010).

In all, about 110,000 compounds were measured (“z-score”: median about -0.1, highest 2% from about 2 on). The list shows a part of the results. Active and inactive are the calls of the source.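 Rule for the calls: active = z-score in the third read window above 3 or below -3; inactive = the rest.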

The target of this experiment is Metabotropic glutamate receptor 8 (Rattus norvegicus) (UniProt P70579). The experiment in a line: rat mGluR8 modulators via GIRK flux, primary screen, cell-based, thallium flux, HTS (AID 488969). The conditions noted are these: HEK293 rat mGluR8, GIRK (G protein-gated inwardly rectifying potassium channel) thallium flux, FluoZin2; at 10 µM; stronger effect = higher value; submaximal glutamate (EC20) added with thallium.
Chain of UniProt P70579 (P70579 whole entry, looked up): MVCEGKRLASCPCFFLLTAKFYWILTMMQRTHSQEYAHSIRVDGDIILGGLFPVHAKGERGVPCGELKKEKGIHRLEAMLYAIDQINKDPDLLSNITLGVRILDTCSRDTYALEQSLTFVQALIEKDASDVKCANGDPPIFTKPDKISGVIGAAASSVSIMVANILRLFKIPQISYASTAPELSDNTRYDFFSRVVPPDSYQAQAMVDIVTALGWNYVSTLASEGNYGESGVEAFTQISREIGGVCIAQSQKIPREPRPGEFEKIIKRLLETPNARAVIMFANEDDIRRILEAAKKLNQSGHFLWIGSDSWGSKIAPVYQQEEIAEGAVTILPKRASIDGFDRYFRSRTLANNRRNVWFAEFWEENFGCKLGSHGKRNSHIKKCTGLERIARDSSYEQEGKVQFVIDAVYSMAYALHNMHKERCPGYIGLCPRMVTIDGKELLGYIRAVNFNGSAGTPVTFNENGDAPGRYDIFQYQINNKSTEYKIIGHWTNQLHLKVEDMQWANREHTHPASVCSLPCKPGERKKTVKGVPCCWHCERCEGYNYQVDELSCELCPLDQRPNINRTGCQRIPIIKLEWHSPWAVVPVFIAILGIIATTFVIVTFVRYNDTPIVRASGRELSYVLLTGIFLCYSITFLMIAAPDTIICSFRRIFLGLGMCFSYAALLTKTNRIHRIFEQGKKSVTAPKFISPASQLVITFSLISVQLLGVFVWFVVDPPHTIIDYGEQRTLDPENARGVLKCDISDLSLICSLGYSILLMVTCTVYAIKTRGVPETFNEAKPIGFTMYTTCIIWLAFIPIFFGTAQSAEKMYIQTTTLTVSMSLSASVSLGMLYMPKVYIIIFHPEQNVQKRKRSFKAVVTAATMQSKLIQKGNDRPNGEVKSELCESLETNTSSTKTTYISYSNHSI
Consider `CCn1c2ccccc2c2cc(NC(=O)CSc3nnc(-c4cccc(Cl)c4)o3)ccc21`, for which the z-score is -0.778. To `Nc1c(C(=O)c2ccc(Cl)cc2)oc2ccccc12` belongs -0.0786; to `CS(=O)(=O)N(CCc1ccccc1)CC(=O)N1CCN(c2ccccc2F)CC1`, 1.15. With `Nc1ccc2nc(-c3ccccc3)sc2c1`, the z-score was -0.0205.

The molecule `Fc1ccc(-c2[nH]ncc2-c2nnnn2-c2ccccc2)c(F)c1` yielded a z-score of -0.709. Regarding `Cc1csc2nc(=O)c3ccccc3n12`, the z-score is -0.686. Turning to `O=S(=O)(O/N=C1\CCCc2ccccc21)c1ccc(Cl)cc1`, the z-score was 0.0594. The molecule `O=C(c1ccccc1)c1cc(-c2ccccc2)on1` registered a z-score of -0.175.

`O=C(OCC(=O)c1ccc(Cl)cc1Cl)c1ccc2c(c1)C(=O)N(c1cccc3ncccc13)C2=O` came in with a z-score of 0.125. `CCOC(=O)c1c(NC(C)=O)sc2c1CCC(C=NCCCN(CC)CC)=C2Sc1ccccc1` yielded a z-score of 0.0383. To `Cn1cccc1Cc1nnc(SCC(=O)NCc2ccccc2Cl)n1-c1ccc(F)cc1` belongs 0.0628; to `C=CCNC(=S)NNC(=O)c1ccc(OCCCC)cc1`, -0.162. In turn, `COc1ccc(C(=O)NCc2nc3ccccc3[nH]2)cc1OC` gave a z-score of -0.286. `N#Cc1nc(COc2ccc(F)cc2)oc1N1CCC(Cc2ccccc2)CC1`: the z-score is -0.0698.

Molecule `COc1ccc(-n2c(C)nn(C)c2=O)c(OC)c1` displayed a z-score of -0.0931. Molecule `CCc1ccc(C2=NN(C(=O)OC)C(O)(C(F)(F)F)C2)cc1` (stereo not given) returned a z-score of -0.152.

Turning to `O=C(CSc1ncn[nH]1)NC1CC2CCC1C2` (stereo not given), the z-score is -0.0325. On to `COc1ccc(N2CCN(c3nc(Nc4ccc(F)cc4)nc(OC)n3)CC2)cc1`, for which the z-score was -0.199.

`Cc1ccc(C(=O)NCc2ccco2)cc1S(=O)(=O)N1CCOCC1` showed a z-score of 0.0197. As to `O=C(Nc1cc(C(F)(F)F)ccc1Cl)c1cc2nc3c(c(C(F)(F)F)n2n1)CCCC3`, the z-score is -0.0974. `Cc1ccc(C(C)NC(=O)Cn2nc(C)c([N+](=O)[O-])c2C)cc1` (stereo not given) had a z-score of -0.289. The molecule `O=C(CSCc1ccccc1)Nc1cccc(F)c1` returned a z-score of -0.488. To `CC1CCc2c(sc(N)c2C(N)=O)C1` (stereo not given) belongs 0.573. In turn, `O=C(NCCN1CCOCC1)C1CCN(Cc2ccccc2O)CC1` came in with a z-score of 0.139. In the case of `O=C(CCN1CCN(c2ccccc2F)CC1)c1ccc(Br)cc1`, the z-score is -0.797. `CCCn1c(C)cc(C(=O)COc2ccc(S(=O)(=O)N(CC)CC)cc2[N+](=O)[O-])c1C` returned a z-score of -0.314. In the case of `CCOC(=O)Nc1ccc([N+](=O)[O-])cc1C`, the z-score is 0.0184. To `O=C(N/C(=C/c1cccc(Br)c1)c1nc(=S)[nH][nH]1)c1ccccc1` belongs -0.238. The molecule `CCn1c(N2CCC(C)CC2)nc2c1c(=O)n(C)c(=O)n2C` returned a z-score of -0.18. As to `Cc1n[nH]c(C)c1S(=O)(=O)N1CCN(c2ccccn2)CC1`, the z-score is -1.08.

Take `CN(C)c1ccc(N=Cc2nc(-c3ccccc3)oc2OC(=O)c2cccc(Cl)c2)cc1`: the z-score is -0.933. On to `CCC(C)(C)NC(=O)C(c1cccn1C)N(Cc1ccc(OC)cc1)C(=O)Cn1nnc2ccccc21` (stereo not given), for which the z-score is 0.0645. Take `Nn1c(Nc2ccccc2)nc2sc3c(c2c1=O)CCC3`: the z-score was -0.069. Consider `CC(C)=C1C2CCC1C1C(=O)N(c3nc(-c4ccc(C(C)C)cc4)c(C)s3)C(=O)C21` (stereo not given), for which the z-score is -0.0235.

`COc1ccc(Cl)cc1NC(=O)CNc1ccccc1F` displayed a z-score of -0.487. To `COc1ccc(OCCc2nnc(N)s2)cc1` belongs 0.0465. Take `CNc1nc(N)c(C(=O)C(C)(C)C)s1`: the z-score worked out at 0.165. Under `CCCCc1nnc(NC(=O)C2CCCO2)s1` (stereo not given) stands 0.294. Take `CCC1=NN(C(=O)C(=O)NCCc2ccccc2)C(O)(C(F)(F)F)C1` (stereo not given): the z-score amounted to 0.0991. Consider `Cc1cc(C(=O)CSc2nnc(-c3ccc(F)cc3)o2)c(C)n1CC1CCCO1` (stereo not given), for which the z-score is -0.0536. The molecule `CCOc1cc(CN2CCN(C(=O)CC(C)C)CC2)ccc1OC` had a z-score of -0.423.

For `CCN(CC)CCNc1nc2c(c(=O)n(C)c(=O)n2C)n1C/C=C(/C)Cl`, the z-score was 0.0501.

Molecule `Cc1ccc(Cn2c(SCCN3CCCCC3)nc3c2c(=O)n(C)c(=O)n3C)cc1` registered a z-score of -0.343. `Cc1c(C(=O)COC(C)(C)C)[nH]c2ccccc12` returned a z-score of -0.00701.

In the case of `CCCNC1=C(C)C(=O)CC1`, the z-score worked out at 0.113. To `CCc1cccc(NC(=O)COc2ccccc2)c1` belongs 0.78; to `CCCCC(=O)NC1(C(F)(F)F)C(=O)Nc2c1c(=O)n(C)c(=O)n2C` (stereo not given), 0.13. Consider `CCc1ccc(NCc2nc3ccccc3c(=O)[nH]2)cc1`, for which the z-score was -0.644. `CCOC(=O)c1c(NC(=O)COC(=O)CNC(=O)c2ccco2)sc(C)c1C`: the z-score is -0.517. With `NS(=O)(=O)c1cccc(NC(=O)CCSc2ccc(Cl)cc2)c1`, the z-score was -0.162.

The molecule `C=CCn1c2ccccc2n2nc(C)c(=O)nc12` registered a z-score of -0.256. For `COc1ccccc1NC(=O)CSc1nc(O)cc(=O)n1C`, the z-score was -0.448. In the case of `Cc1ccc(NC(=O)c2ccc(C(C)(C)C)cc2)cc1[N+](=O)[O-]`, the z-score was found to be 2.5. To `COC(=O)/C=C/C(=O)N1CCN(c2ccccc2)CC1` belongs -0.0929; to `CC(=C/C(=O)O)/C=C/c1ccc(Cl)o1`, 0.0424; to `COC(=O)c1cccc(C(=O)Nc2ccc(C)cc2)n1`, -0.718. Under `O=C(NCc1ccccc1)c1cccc(COc2ccc3c(c2)CCC3)c1` stands 0.0209; under `CCCC(=O)Nc1cccc(NC(=O)c2ccccc2Br)c1`, -0.00843; under `COC(=O)CNC(c1ccccc1Cl)c1cc(Br)ccc1NC(=O)CCN1CCOCC1` (stereo not given), -0.438. The molecule `Cc1noc(C)c1COC(=O)CCCc1nc2ccccc2s1` gave a z-score of -0.721. `CC(=O)N(Cc1ccco1)C1(C(=O)NC2CCCCC2)CCCCC1` gave a z-score of -0.323.

For `CCC(=O)N1C(=O)CCN(C(C)=O)c2ccccc21`, the z-score came to 1.2. `COc1ccc(C(=O)N2CCN(S(=O)(=O)N3CCOCC3)CC2)cc1OC` returned a z-score of 0.345.

`Cc1cc(C)c(C#N)c(SCc2cn3ccccc3n2)n1`: the z-score was -0.255. As for `Cn1c(SCC(=O)Nc2cccc(F)c2)nnc1-c1cc2ccccc2o1`, the z-score is -0.2.

For the molecule `COc1cc(S(=O)(=O)N(Cc2ccccn2)Cc2ccco2)ccc1-n1cnnn1`, the z-score was -0.493.

The molecule `Cc1ccc(C)c(C(=O)n2cnnc2N)c1` returned a z-score of 0.51. Regarding `COc1ccc(S(=O)(=O)Nc2ccccc2C(=O)OC2CCCN(C)C2)cc1OC` (stereo not given), the z-score was determined as 1.28.

In the case of `COc1ccc(NC(=S)NC2CCCCCC2)c(OC)c1`, the z-score is -0.0804. The molecule `COc1cc(/C=N/NC(=O)CC2(C)OCCCO2)ccc1OCc1ccc(Cl)cc1Cl` had a z-score of -0.164. With `O=C(C1=C(O)C(=O)N(CCN2CCOCC2)C1c1ccccc1)c1cccs1` (stereo not given), the z-score was -0.318. Take `O=C(c1nc2nc(-c3cccs3)cc(C(F)(F)F)n2n1)N1CCN(Cc2ccccc2)CC1`: the z-score is -0.643. `COc1ccc(S(=O)(=O)N2CCCCC2C(=O)O)cc1` (stereo not given) came in with a z-score of 0.392.

Molecule `Cc1nc(SCC(=O)N2CC(C)OC(C)C2)nc(C)c1C` (stereo not given) registered a z-score of -0.685. Turning to `O=C(C1CCCN(S(=O)(=O)c2cccc3nonc23)C1)N1CCC(Cc2ccccc2)CC1` (stereo not given), the z-score was -0.363. `C/C(N)=C(/C#N)C(=O)COC(=O)c1ccccc1O` returned a z-score of 0.123. Molecule `O=C(NNS(=O)(=O)c1ccccc1)C1CCN(S(=O)(=O)c2ccc(Cl)cc2)CC1` registered a z-score of -0.131. With `CCN(CC)CCCN1C(=O)c2oc3ccccc3c(=O)c2C1c1cccs1` (stereo not given), the z-score was active: 13.2. Under `Cc1[nH]c(=O)[nH]c(=O)c1S(=O)(=O)N1CCCC(C(=O)NCCc2ccccc2)C1` (stereo not given) stands 0.415; under `c1coc(CNc2ncnc3ccccc23)c1`, -0.0471. Molecule `CC1CC(C)CN(C(=O)/C(=C\c2ccccc2)c2ccccc2)C1` (stereo not given) showed a z-score of -0.206. Under `Cc1nnc(SCC(=O)c2cc(C)n(C3CC3)c2C)s1` stands 0.0306; under `CC(c1nnc(SCC(=O)c2c(N)n(C)c(=O)n(C)c2=O)n1-c1ccc(Cl)cc1)N(C)C` (stereo not given), -0.257. In turn, `COC(=O)C1=C(C)Nc2nnnn2C1c1cccnc1` (stereo not given) came in with a z-score of -0.944.

Take `CC(C)OCCCn1c(=NC(=O)c2ccncc2)c(C#N)cc2c(=O)n3ccccc3nc21`: the z-score is -0.546. To `N#Cc1cccc(C(c2nnnn2Cc2ccccc2)N2CCCC2)c1` (stereo not given) belongs -0.026; to `CCNS(=O)(=O)c1cc(OC)ccc1OC`, -0.256; to `Cc1cc(NC(=O)c2cccc(S(=O)(=O)N3CC(c4ccccc4)CC3=O)c2)no1` (stereo not given), -0.591. With `O=C(Nc1ccc(N2CCCC2)c(Cl)c1)c1ccc2c(c1)OCCO2`, the z-score came out at 2.58. As for `CS(=O)(=O)N(Cc1ccc(C(=O)NCCSc2ccccn2)cc1)c1ccccc1`, the z-score was -0.215. In turn, `O=C(CCC1CCCC1)N1CCC(N2CCN(c3ccccc3)CC2)CC1` came in with a z-score of -0.3. As for `Cc1ccc(NC(=O)c2c(C(F)(F)F)nn(C)c2SCc2ccc(Cl)cc2)cc1C`, the z-score was -0.137. As for `Cc1cc(SCC(N)=O)nc(SCC(=O)c2ccccc2)n1`, the z-score came to 0.0799. To `O=C(CSc1ccc(Cl)cc1)N1CCN(c2ccc(Cl)cc2[N+](=O)[O-])CC1` belongs -0.109. For the molecule `CCn1c(SCC(=O)O)nnc1-c1cc2c(C)nn(-c3ccccc3)c2s1`, the z-score was -0.268. Molecule `O=C(NC1(C(F)(F)F)NC(=O)N(CC2CCCCC2)C1=O)c1ccco1` (stereo not given) had a z-score of 0.164. In turn, `COCCCNC(=S)N1CCN(C(=O)c2ccco2)CC1` yielded a z-score of -0.034. In the case of `CC1CCC2C(=O)N(c3ccc(C(=O)Oc4cccc5cccnc45)cc3)C(=O)C2C1` (stereo not given), the z-score turned out to be 0.0861. `CCCN(CCC)CCNC(=O)C1c2ccccc2C(=O)N(CCOC)C1c1ccc(F)cc1` (stereo not given) returned a z-score of 0.26. Turning to `COC(=O)c1cc(NC(=O)c2ccccc2)c(=O)oc1C/C=N\OCc1ccc(Cl)cc1Cl`, the z-score was found to be 0.00511. Turning to `CC(C)Oc1cccc(C(=O)Nc2ccc(Br)cc2F)c1`, the z-score is -0.258. Molecule `CCN1CCN(c2ccc([N+](=O)[O-])c(Sc3nc4ccccc4[nH]3)c2)CC1` had a z-score of -0.415.

`COc1ccc(C2=NN(c3nc4ccccc4s3)C(=O)/C2=C\N(C)C)cc1` registered a z-score of -0.127. `CCOC(=O)N1CCC(N2CC34C=CC(O3)C(C(=O)O)C4C2=O)CC1` (stereo not given) gave a z-score of 0.198.

In the case of `O=C(O)CCC(=O)N1N=C(c2ccco2)CC1c1cccs1` (stereo not given), the z-score was -0.253. `O=C1c2oc3ccc(Cl)cc3c(=O)c2C(c2ccco2)N1CCN1CCOCC1` (stereo not given) showed a z-score of 0.841. As to `CC(=O)c1cccc(N(C(=O)CS(=O)CC(=O)Nc2ccc(F)cc2)C(C(=O)NC2CCCCC2)c2ccc(C)o2)c1` (stereo not given), the z-score is -0.235. Turning to `C=CCOC(=O)c1cc(-c2ccc(/C=C3\C(=O)NC(=O)C(C#N)=C3C)o2)ccc1Cl`, the z-score was -0.253.

In turn, `COc1ccc(Cn2nnnc2CN(Cc2cc3cc(C)ccc3[nH]c2=O)C2CCCC2)cc1` came in with a z-score of 0.604.

In the case of `COCCCNC(=O)c1c(NC(=O)c2cccs2)sc2c1CCCC2`, the z-score was -0.00951.
